Reference: PubChem BioAssay AID1240 (Sanford-Burnham Center for Chemical Genomics, 2008)
The whole screen tested about 50,000 compounds, of which about 800 (1.6%) showed an effect of 50% or more. The list shows a part of the results.

These compounds were tested against Bcl-2-like protein 10 (Homo sapiens) (UniProt Q9HD36) (assay: Phenotype converters, Bcl-B/TR3 peptide binding displacement, primary biochemical FP (AID 1240;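 further: 0% = Bcl-B with tracer peptide and DMSO and 100% = tracer peptide lacking Bcl-B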)). Conditions: GST-Bcl-B / FITC-TR3 peptide fluorescence polarization; stronger effect = higher value; compound at 3.75 mg/L.
UniProt Q9HD36, sequence (Q9HD36 whole entry, looked up): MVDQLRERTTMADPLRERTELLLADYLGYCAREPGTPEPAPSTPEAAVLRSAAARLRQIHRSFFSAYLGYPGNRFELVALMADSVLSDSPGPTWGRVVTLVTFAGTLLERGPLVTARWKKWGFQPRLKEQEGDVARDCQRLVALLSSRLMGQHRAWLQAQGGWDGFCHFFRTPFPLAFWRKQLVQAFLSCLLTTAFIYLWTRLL

Row | SMILES | displacement [%]
1 | O=C(CSc1nc2ccccc2n1Cc1ccccc1)N/N=C/c1cccc(O)c1 | -2.4
2 | COc1ccc(N2C(=O)NC(=O)/C(=C/c3cccc(OC)c3O)C2=O)cc1 | -4.8
3 | COC(=O)CN(c1ccccc1C)S(=O)(=O)c1ccccc1 | -0.9
4 | CC(C)Cc1ccc(C(C)C(=O)Nc2cccc(O)c2)cc1 (centres undefined) | 14.9
5 | Fc1ccc(NC(=S)N2CCN(C/C=C/c3ccccc3)CC2)cc1 | 4.5
6 | COc1ccc(N2C(=O)c3ccccc3NC2c2cccc(F)c2)cc1 (centres undefined) | 7.7
7 | CCN(CC)c1ccc(C=NN2CCN(Cc3ccccc3)CC2)c(O)c1 | -6
8 | Cc1cccc(-n2c(SCCc3ccccc3)nc3ccccc3c2=O)c1 | -7.2
9 | O=C1NC(=O)N(c2cccc(F)c2)C(=O)/C1=C/c1ccc(Sc2ccccc2)o1 | -18.2
10 | CSc1nsc(SC)c1NC(=O)OC1CCCCC1 | -1.7
11 | CCOc1ccc(C2=C/C(=C/c3ccc(Br)o3)C(=O)O2)cc1 | -22.1
12 | CCOC(=O)C1=C(C)N=c2s/c(=C\c3ccc(N(C)C)o3)c(=O)n2C1c1cccs1 (centres undefined) | 0.1
13 | Cc1ccc(NC(=O)c2c(NC(=O)c3cccs3)sc3c2CCCCC3)c(C)c1 | -8
14 | O=C1C2C3C=CC(C4CC34)C2C(=O)N1c1ccc(Cl)cc1 (centres undefined) | -3.5
15 | COc1cccc(/C=C(\C#N)C(N)=O)c1 | -3.8
16 | Cc1ccc(S(=O)(=O)Nc2ccc(S(=O)(=O)N3CCOCC3)cc2)cc1 | 8.2
17 | COc1ccc(N2C(=O)CC(NCc3ccc(Cl)c(Cl)c3)C2=O)cc1 (centres undefined) | -0.9
18 | CNc1nc(Nc2ccc([N+](=O)[O-])cc2)nc(OCC(F)(F)C(F)F)n1 | 13.8
19 | O=C(O)CN(c1ccc(Br)cc1)S(=O)(=O)c1ccccc1 | 0
20 | CCOC(=O)c1c(NC(=O)/C=C/c2cccs2)sc(C)c1C | 2.9
21 | Cc1[nH]c2ccccc2c1/C=C/c1nc2ccccc2c(=O)n1C | 186
22 | O=C(CCC(=O)N/N=C/c1ccccc1C(F)(F)F)N/N=C/c1ccccc1C(F)(F)F | 2.4
23 | C=C(Br)n1c(COc2ccccc2)nc2ccccc21 | 9.8

Row | SMILES | displacement [%]
24 | O=C(Cn1c(-c2ccccc2)c[n+]2ccsc12)c1ccc([N+](=O)[O-])cc1 | 13.8
25 | O=C(N=Nc1c(O)n(CN2CCCC2)c2ccccc12)c1cccnc1 | 5.9
26 | COc1ccccc1N(CC(=O)NC(C)c1ccccc1)S(=O)(=O)c1ccccc1 (centres undefined) | 1.1
27 | CC(C)(C)OC(=O)N1CC(O)CC1C(=O)OCC(=O)c1ccc(-c2ccccc2)cc1 (centres undefined) | 4.5
28 | O=C(O)CCN1C(=O)/C(=C/c2ccc(-c3ccccc3[N+](=O)[O-])o2)SC1=S | 40.8
29 | CCOC(=O)c1ccc(NC(=O)CN(c2ccc(C)cc2)S(C)(=O)=O)cc1 | 6.5
30 | c1csc(CNc2ccc(-c3nc4ccccc4s3)cc2)c1 | 12.1
31 | CCC(=O)Nc1ccc(NC(=O)c2ccc(Br)o2)cc1 | 13.2
32 | COC(=O)C1C(C(C)C)N(c2ccccc2)OC1(C)O (centres undefined) | 11.7
33 | Cc1cc(Cl)ccc1OC(C)C(=O)NCc1ccc2c(c1)OCO2 (centres undefined) | -6.5
34 | NC(=O)c1nn2c(C(F)(F)F)cc(-c3ccccc3)nc2c1Br | 3.7
35 | Cc1cccc(C(=O)O/N=C(\N)c2cccnc2)c1 | 11.7
36 | COc1cccc(NC(=S)NC(NC(=O)c2ccccc2)C(Cl)(Cl)Cl)c1 (centres undefined) | -0.4
37 | OC(COCC1CC=CCC1)Cn1c2ccccc2c2ccccc21 (centres undefined) | -3.8
38 | C/C(O)=C\C(N)=N/c1nc(C)cc(C)n1 | 19.9
39 | O=C(NCc1cccc(CNC(=O)C(=O)NCC2CCCO2)c1)C(=O)NCC1CCCO1 (centres undefined) | 10.9
40 | O=S(=O)(Nc1ccc(Br)cc1)c1ccc(Cl)cc1 | 13.5
41 | CC(C)(C)NC(=S)NC12CC3CC(CC(C3)C1)C2 | 15.4
42 | O=C(NC1CCCCC1)C1CN(S(=O)(=O)c2ccccc2)CCN1S(=O)(=O)c1ccccc1 (centres undefined) | -6.2
43 | O=S(=O)(Nc1ccc(S(=O)(=O)N2CCCCC2)cc1)c1ccccc1 | 4.5
44 | O=C(NCc1ccccc1)C(O)(c1ccc(Cl)cc1)c1ccc(Cl)cc1 | -6
45 | CC(C)(C)C(=O)/C=C/c1ccc([N+](=O)[O-])cc1 | 7
46 | COc1ccccc1C(=O)NC(=S)Nc1ccccc1 | 2.5

Row | SMILES | displacement [%]
47 | Cc1cc(OCCCCCn2ccnc2)cc(C)c1Cl | -5.3
48 | C/C(=N\N=C1\NC(=O)C(CC(=O)Nc2ccccc2F)S1)c1ccc(Cl)cc1 (centres undefined) | -2.7
49 | O=C1CC(c2cc(Br)ccc2F)c2ccc3ccccc3c2N1 (centres undefined) | 11.2
50 | CC(=O)c1cccc(NC(=O)c2ccc3c(c2)OCO3)c1 | -14.5
51 | O=C(Nc1ccccc1C(=O)O)c1cccc(N2C(=O)c3cccc([N+](=O)[O-])c3C2=O)c1 | 1.4
52 | NS(=O)(=O)c1ccc(NC(=O)CCC2CCCCC2)cc1 | -1.8
53 | COc1cc(Br)c(/C=N/NS(=O)(=O)c2ccc(C)cc2)cc1OC | 10.2
54 | CS(=O)(=O)N1CCN(C(=O)Cc2ccccc2)CC1 | 12.7
55 | Cc1nnc(C)n1/N=C/c1ccc(Cl)c([N+](=O)[O-])c1 | 8.3
56 | Cc1cc(/C=N/n2cnnc2)c(C)n1-c1ccccc1 | 13.6
57 | O=C(Nc1ccc(Cl)cc1)Nc1nnc(Cc2ccccc2)s1 | 12
58 | CN(C)c1ccc(/C=N/NC(=O)c2cc(Br)ccc2O)cc1 | 12
59 | Clc1ccc(Cn2cc(/C=N/n3cnnc3)c3ccccc32)cc1Cl | 2.8
60 | OC(C#CCN1CCCCC1)(c1ccccc1)c1ccccc1 | 4.7
61 | CCOC(=O)c1cc(C(=O)NC(C)c2ccccc2)c(=O)[nH]c1C (centres undefined) | 4.8
62 | N#Cc1c(/N=C/c2ccccc2Cl)sc2c1CCCC2 | 12.1
63 | COC(=O)CSC1=C(C#N)C(c2ccsc2)CC(=O)N1 (centres undefined) | -8.1
64 | COc1ccc(NC(=O)c2cc3ccccc3cc2OC)cc1OC | 8.8
65 | COc1ccccc1C(=O)Nc1ccc2nn(-c3ccc(F)cc3)nc2c1 | 1.3
66 | Cc1cccc(OCC(=O)O/N=C(\N)Cc2ccc(Cl)cc2Cl)c1 | 3.2
67 | O=C(Nc1ccc(Br)cc1)C1CC(=O)N(c2ccc(Cl)cc2)C1 (centres undefined) | 9
68 | Cc1ccc(-c2cc3nc(C)c(Cl)c(C)n3n2)cc1 | -8.3
69 | O=C(Nc1ccc2oc(-c3ccncc3)nc2c1)c1ccccn1 | 11.6

Row | SMILES | displacement [%]
70 | CC(C)(C)n1c(O)c(N=Nc2ccc(Br)cc2)c(=O)[nH]c1=O | 0.5
71 | COc1ccc2nc(SCC(=O)Nc3ccc(Cl)cc3)[nH]c2c1 | 0.3
72 | O=C(Nc1ccc(Cl)cc1)c1ccncc1 | -3.3
73 | COC(=O)c1cc(NC(=O)c2ccc3c(c2)OCCO3)cc(C(=O)OC)c1 | 11.4
74 | COc1cccc(/C=C2\Sc3ccccc3C2=O)c1O | 4.9
75 | Cc1ccc(C2=NNC(c3ccc(Cl)cc3)S2)cc1 (centres undefined) | 4.8
76 | O=C(NCCc1ccc(Cl)cc1)C(=O)Nc1ccccc1F | 5.5
77 | Cc1ccccc1NC(=O)c1cnccn1 | -5.9
78 | COc1ccc(/C=C2/SC(=S)N(Cc3ccccc3)C2=O)cc1OC | 16.1
79 | Cc1cc(/C=C2\SC(=S)NC2=O)c(C)n1C | -9.3
80 | NC1=NC(=O)/C(=C/c2cccc(OCc3cccc4ccccc34)c2)S1 | 8.1
81 | Cc1c(Cl)cccc1-c1ccc(C(=O)Nc2ccc(Cl)cc2)o1 | -0.6
82 | CCOc1ccc(/C=C2/SC(NC(C)=O)=NC2=O)cc1 | 132
83 | COc1ccc2ncn(-c3ccccc3)c2c1 | -6.2
84 | O=c1oc2cc(OCc3ccc(F)cc3)ccc2cc1-c1nc2ccccc2s1 | 52.5
85 | O=c1ccc([N+](=O)[O-])ccc1NCc1ccccc1 | -6.1
86 | CCOC(=O)c1c(NC(=O)c2ccc([N+](=O)[O-])cc2)sc2c1CCCCCC2 | -4.7
87 | S=C(Cc1ccccc1)N1CCOCC1 | 6.4
88 | CC(C)(C)SCCN=C1NS(=O)(=O)c2ccccc21 | 5.3
89 | COc1ccc(C(=O)Nc2nc3ccc(C)cc3s2)cc1Br | 14.6
90 | c1ccc(-c2ccc(-c3nc(-c4ccncc4)no3)cc2)cc1 | 0.3
91 | CN(C)CCNC(=O)c1ccc(F)cc1 | 13.8
92 | Cc1c(Br)c(C(F)(F)F)nn1CC(=O)N(C)c1ccccc1 | 9.2

Row | SMILES | displacement [%]
93 | CCN1C(=O)CSC1=Nc1ccc(C(=O)O)cc1 | -0.4
94 | Cc1cccc(OCC(=O)NC(C)c2ccccc2)c1 (centres undefined) | -5.2
95 | Cc1cccc(C(=O)N(C(C)C)C(C)C)c1 | -8.4
96 | c1ccc(-c2nnc(-c3cccc(-c4nnc(-c5ccccc5)o4)c3)o2)cc1 | -1.2
97 | COc1ccc(C(=O)Nc2ccccc2C(=O)N2CCOCC2)cc1 | 5.5
98 | N#Cc1cnc(Nc2ccc(Cl)cc2)c(C#N)c1Nc1ccccc1 | -4.1
99 | Cc1ccc2oc(-c3cccc(NS(=O)(=O)c4ccccc4)c3C)nc2c1 | -6.4
100 | CCCCOc1ccc(Cc2c(O)nc(N)[nH]c2=O)cc1 | 0.1
101 | COc1ccc(N2C(=O)CC(Sc3nnc(N)s3)C2=O)cc1 (centres undefined) | 8.2
102 | CCCc1cc2c(-c3ccccc3)cc(=O)oc2cc1OCC | 6.2
103 | COc1cccc(-c2nnc(NC(=O)/C=C/c3ccccc3)s2)c1 | 51.4
104 | COc1ccccc1-c1coc2cc(OC(=O)c3ccc(Cl)cc3)ccc2c1=O | -2
105 | COc1cc(/C=N/n2c(C)nnc2-n2nc(C)cc2C)cc(I)c1O | 3.2
106 | COc1cc(F)ccc1S(=O)(=O)N1CCC(C)CC1 | -0.3
107 | COc1ccc(N(CC(=O)NCC2CCCO2)S(=O)(=O)c2ccccc2)cc1 (centres undefined) | -17.9
108 | CC1(C)CC(=O)c2sc(NC(=O)CSc3nc4ccccc4[nH]3)nc2C1 | -2.1
109 | CC(C)(C)c1cc(C2Nc3cccc4cccc(c34)N2)cc(C(C)(C)C)c1O | 9.6
110 | COC(=O)CCN1C(=O)/C(=C\c2cc(Br)c(O)c(OC)c2)SC1=S | 53.8
111 | Cn1cccc1CN1CCN(S(C)(=O)=O)CC1 | 15.3
112 | O=C(COc1ccc(Cl)cc1Br)NNC(=O)c1cccs1 | -10.7
113 | Cc1ccc2oc(-c3cccc(NC(=O)/C=C/c4ccc(-c5ccccc5[N+](=O)[O-])o4)c3C)nc2c1 | 9.6
114 | Cc1ccc(-c2csc(-c3cc4ccccc4oc3=O)n2)cc1 | 154
